Lines with a small IC50 respond at low doses; fits outside the tested doses are given as limits. For AUC the same curve is integrated over the 256-fold range of doses and scaled to a fraction; it is 1 without any effect and falls as sensitivity rises. For part of these data: An inferred top dose comes from the curve model; the source does not state it.
How the values were obtained:
Assay in all cases: Viability of human cancer cell lines after 72 h of drug (GDSC screen)
Midostaurin = compound: CO[C@@H]1[C@H](N(C)C(=O)c2ccccc2)C[C@H]2O[C@]1(C)n1c3ccccc3c3c4c(c5c6ccccc6n2c5c31)C(=O)NC4 [Midostaurin]; conditions: top dose 0.512 µM; top dose inferred
Experimental: (§1)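 Human cancer cell lines in 384-well plates, medium with 10% serum, drug for 72 h over a 256-fold dose range (nine 2-fold or five 4-fold steps up to the top dose). Adherent lines were fixed and stained with the nucleic acid dye Syto60, suspension lines read with resazurin; signal relative to control wells, capped at 0 and 100%. One two-parameter sigmoid per drug and line, fitted in a mixed model over all curves with the slope shared within a line.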

Mitomycin C = compound: CO[C@@]12[C@H](COC(N)=O)C3=C(C(=O)C(C)=C(N)C3=O)N1C[C@@H]1N[C@@H]12 [Mitomycin C]; conditions: top dose 16 µM
Experimental: as §1

Bosutinib = compound: COc1cc(Nc2c(C#N)cnc3cc(OCCCN4CCN(C)CC4)c(OC)cc23)c(Cl)cc1Cl [Bosutinib]; conditions: top dose 2 µM
Experimental: as §1

NVP-BHG712 = compound: Cc1ccc(C(=O)Nc2cccc(C(F)(F)F)c2)cc1Nc1nc(-c2cccnc2)nc2c1cnn2C [NVP-BHG712]; conditions: top dose 10.24 µM; top dose inferred
Experimental: as §1

IOX2 = compound: O=C(O)CNC(=O)c1c(O)c2ccccc2n(Cc2ccccc2)c1=O [IOX2]; conditions: top dose 0.1 µM; top dose inferred
Experimental: as §1

Cell Line	AUC (Midostaurin)	IC50 (Midostaurin)	AUC (Mitomycin C)	IC50 (Mitomycin C)	AUC (Bosutinib)	IC50 (Bosutinib)	AUC (NVP-BHG712)	IC50 (NVP-BHG712)	AUC (IOX2)	IC50 (IOX2)
BT-483 (breast, adherent)	0.949	> 512 nM	0.778	14200 nM	0.972	> 2000 nM	0.976	> 10200 nM	0.955	> 100 nM
FTC-133 (thyroid, adherent)	0.975	> 512 nM	0.426	613 nM	0.956	> 2000 nM	0.986	> 10200 nM	0.985	> 100 nM
KYSE-520 (oesophagus, adherent)	0.837	> 512 nM	0.445	675 nM	0.868	> 2000 nM	0.97	> 10200 nM	0.979	> 100 nM
C3A (liver, adherent)	0.905	> 512 nM	0.276	224 nM	0.987	> 2000 nM	0.988	> 10200 nM	0.978	> 100 nM
JHH-2 (liver, adherent)	0.949	> 512 nM	0.748	5480 nM	0.979	> 2000 nM	0.926	> 10200 nM	0.983	> 100 nM
PANC-08-13 (pancreas, adherent)	0.945	> 512 nM	0.614	2240 nM	0.981	> 2000 nM	0.864	> 10200 nM	0.98	> 100 nM
NCI-H1568 (lung adenocarcinoma, adherent)	0.883	> 512 nM	0.459	750 nM	0.907	> 2000 nM	0.948	> 10200 nM	0.971	> 100 nM
EW-7 (Ewing sarcoma, semi-adherent)	0.9	> 512 nM	0.062	< 62.5 nM	0.972	> 2000 nM	0.89	9300 nM	0.989	> 100 nM
TGBC11TKB (stomach, adherent)	0.992	> 512 nM	0.457	774 nM	0.985	> 2000 nM	0.926	> 10200 nM	0.991	> 100 nM
SW1990 (pancreas, adherent)	0.939	> 512 nM	0.426	603 nM	0.941	> 2000 nM	0.985	> 10200 nM	0.983	> 100 nM
NCI-H2087 (lung adenocarcinoma, semi-adherent)	0.892	> 512 nM	0.172	92 nM	0.986	> 2000 nM	0.803	5560 nM	0.914	> 100 nM
G-361 (melanoma, adherent)	0.79	217 nM	0.211	148 nM	0.923	> 2000 nM	0.889	> 10200 nM	0.987	> 100 nM
LN-18 (glioma, adherent)	0.83	240 nM	0.25	229 nM	0.977	> 2000 nM	0.993	> 10200 nM	0.976	> 100 nM
JHH-1 (liver, adherent)	0.87	> 512 nM	0.426	614 nM	0.812	1190 nM	0.842	8110 nM	0.973	> 100 nM
NCI-H841 (small cell lung carcinoma, adherent)	0.94	> 512 nM	0.651	2630 nM	0.913	> 2000 nM	0.958	> 10200 nM	0.962	> 100 nM
ME-180 (cervix, adherent)	0.971	> 512 nM	0.132	63.6 nM	0.825	1270 nM	0.895	> 10200 nM	0.981	> 100 nM
BL-41 (Burkitt lymphoma, suspension)	0.907	404 nM	0.306	332 nM	0.909	1610 nM	0.759	2830 nM	0.982	> 100 nM
HT55 (large intestine, adherent)	0.951	> 512 nM	0.667	2900 nM	0.986	> 2000 nM	0.959	> 10200 nM	0.989	> 100 nM
LU-135 (small cell lung carcinoma, suspension)	0.753	146 nM	0.063	< 62.5 nM	0.991	> 2000 nM	0.905	9640 nM	0.992	> 100 nM
Detroit562 (head and neck, adherent)	0.906	> 512 nM	0.236	179 nM	0.94	> 2000 nM	0.976	> 10200 nM	0.987	> 100 nM
NCI-H2023 (lung adenocarcinoma, adherent)	0.903	> 512 nM	0.376	419 nM	0.914	> 2000 nM	0.963	> 10200 nM	0.976	> 100 nM
TT (thyroid, adherent)	0.978	> 512 nM	0.656	3220 nM	0.938	> 2000 nM	0.974	> 10200 nM	0.977	> 100 nM
MEL-JUSO (melanoma, adherent)	0.822	345 nM	0.142	63.8 nM	0.805	1160 nM	0.683	2230 nM	0.982	> 100 nM
NY (osteosarcoma, adherent)	0.728	141 nM	0.459	774 nM	0.966	> 2000 nM	0.989	> 10200 nM	0.978	> 100 nM
HCC-15 (lung squamous cell carcinoma, adherent)	0.877	> 512 nM	0.336	306 nM	0.952	> 2000 nM	0.929	> 10200 nM	0.98	> 100 nM
PA-TU-8902 (pancreas, adherent)	0.943	> 512 nM	0.632	2480 nM	0.981	> 2000 nM	0.842	9000 nM	0.973	> 100 nM

Cell Line	AUC (Midostaurin)	IC50 (Midostaurin)	AUC (Mitomycin C)	IC50 (Mitomycin C)	AUC (Bosutinib)	IC50 (Bosutinib)	AUC (NVP-BHG712)	IC50 (NVP-BHG712)	AUC (IOX2)	IC50 (IOX2)
M059J (glioma, adherent)	0.828	351 nM	0.24	165 nM	0.985	> 2000 nM	0.936	> 10200 nM	0.975	> 100 nM
MFE-280 (endometrium, adherent)	0.956	> 512 nM	0.748	6360 nM	0.982	> 2000 nM	0.845	> 10200 nM	0.98	> 100 nM
NCI-H2122 (lung adenocarcinoma, adherent)	0.854	365 nM	0.065	< 62.5 nM	0.989	> 2000 nM	0.971	> 10200 nM	0.975	> 100 nM
HCC1954 (breast, adherent)	0.98	> 512 nM	0.576	1670 nM	0.931	> 2000 nM	0.984	> 10200 nM	0.978	> 100 nM
PC-3 [JPC-3] (lung adenocarcinoma, adherent)	0.924	> 512 nM	0.575	1720 nM	0.78	1110 nM	0.869	> 10200 nM	0.968	> 100 nM
SU8686 (pancreas, adherent)	0.954	> 512 nM	0.385	463 nM	0.934	> 2000 nM	0.969	> 10200 nM	0.941	> 100 nM
COLO-320-HSR (large intestine, suspension)	0.989	> 512 nM	0.505	1030 nM	0.99	> 2000 nM	0.899	9960 nM	0.991	> 100 nM
H2461 (mesothelioma, adherent)	0.897	> 512 nM	0.619	2310 nM	0.96	> 2000 nM	0.977	> 10200 nM	0.928	> 100 nM
NCI-H2444 (non-small cell lung carcinoma, adherent)	0.988	> 512 nM	0.81	9890 nM	0.976	> 2000 nM	0.913	> 10200 nM	0.983	> 100 nM
CAL-39 (cervix, adherent)	0.842	378 nM	0.143	72.1 nM	0.88	> 2000 nM	0.907	> 10200 nM	0.984	> 100 nM
HuP-T4 (pancreas, adherent)	0.977	> 512 nM	0.214	136 nM	0.9	> 2000 nM	0.755	3680 nM	0.916	> 100 nM
BICR22 (head and neck, adherent)	0.903	> 512 nM	0.446	695 nM	0.805	1200 nM	0.983	> 10200 nM	0.979	> 100 nM
CS1 (bone, adherent)	0.876	> 512 nM	0.623	2280 nM	0.899	> 2000 nM	0.884	> 10200 nM	0.971	> 100 nM
DK-MG (glioma, adherent)	0.876	> 512 nM	0.852	> 16000 nM	0.978	> 2000 nM	0.857	> 10200 nM	0.975	> 100 nM
KYSE-510 (oesophagus, adherent)	0.819	231 nM	0.019	< 62.5 nM	0.985	> 2000 nM	0.988	> 10200 nM	0.992	> 100 nM
RPMI-7951 (melanoma, adherent)	0.911	> 512 nM	0.235	175 nM	0.957	> 2000 nM	0.901	> 10200 nM	0.927	> 100 nM
22RV1 (prostate, adherent)	0.957	> 512 nM	0.229	131 nM	0.969	> 2000 nM	0.835	9180 nM	0.961	> 100 nM
Capan-2 (pancreas, adherent)	0.913	> 512 nM	0.634	2550 nM	0.985	> 2000 nM	0.932	> 10200 nM	0.975	> 100 nM
HCC38 (breast, adherent)	0.854	459 nM	0.425	611 nM	0.986	> 2000 nM	0.956	> 10200 nM	0.98	> 100 nM
SNG-M (endometrium, adherent)	0.891	> 512 nM	0.223	159 nM	0.887	> 2000 nM	0.776	4000 nM	0.962	> 100 nM
H2722 (mesothelioma, adherent)	0.849	504 nM	0.695	3960 nM	0.935	> 2000 nM	0.956	> 10200 nM	0.982	> 100 nM
SW780 (bladder, adherent)	0.846	424 nM	0.784	7460 nM	0.906	> 2000 nM	0.975	> 10200 nM	0.983	> 100 nM
EFM-19 (breast, adherent)	0.692	148 nM	0.604	2230 nM	0.945	> 2000 nM	0.859	> 10200 nM	0.974	> 100 nM
SBC-3 (small cell lung carcinoma, adherent)	0.787	200 nM	0.189	133 nM	0.989	> 2000 nM	0.884	9310 nM	0.987	> 100 nM
SW1271 (small cell lung carcinoma, adherent)	0.706	135 nM	0.568	1580 nM	0.965	> 2000 nM	0.61	1350 nM	0.968	> 100 nM

Source: the supplement of paper PMC4967469
